Test results: the supplement of paper PMC10369915
The other results are listed elsewhere or left out. No stated cut-off is given here; in the data, active = 3.2 or more and inactive = the rest. Most of these values are background signal.

Biological target: SHP2 C-SH2 domain E139D
Experiment: enrichment score (SH2-bound / input frequency) (ratio); bacterial display of known human phosphotyrosine sites (pTyr-Var adds point mutants) read by sequencing; higher = stronger binding; tyrosines were phosphorylated by kinases first
Details: peptide library: pTyr-Var
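Further: displayed peptides selected on beads carrying the immobilized SH2 domain, with library peptides lacking any tyrosine serving as negative controls.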

Enrichment score, inactive:
EASGIYVKSII [PATJ_Y396] 0.507, LHSEAYLKFIE [PBRM1_Y1610_YF] 1.28, VDDEIYYFRKP [PBRM1_Y1289] 0.784, KIPGRYYETGS [PAX2_Y72_L69P] 0.872, EYFENYIEELK [PARP4_Y218] 0.907, EKESCYILHSS [PATJ_Y783_E779K] 0.861, KILGRYFETGS [PAX2_Y72_YF] 1.26, KILGTYFETGS [PAX2_Y72_R71T_YF] 1.17, KKDGPYDVVVL [PARK7_Y67_E64D] 0.703, FHLLPYTVRAM [PARS2_Y93_YF] 1.92, EYYENYIEELK [PARP4_Y218_F215Y] 1.68, IPGRFYETGSI [PAX2_Y73_L69P_YF] 0.975, WDSSGYWTPEE [PAPPA2_Y908_C903W] 0.849, CDSSGYWTPEE [PAPPA2_Y908] 0.683, ILGRFYETGSI [PAX2_Y73_YF] 1.3, ILGRYYETGSI [PAX2_Y73] 1.07, FHLLPYTIRAM [PARS2_Y93_V95I_YF] 2.67, EEKSCYILHSS [PATJ_Y783_E780K] 0.98, KILGRYFETSS [PAX2_Y72_G76S_YF] 1.26

Biological target: SHP2 C-SH2 domain wild-type
Experiment: as above
Details: peptide library: pTyr-Var

Enrichment score, inactive:
EASGIYVKSII [PATJ_Y396] 0.601, LHSEAYLKFIE [PBRM1_Y1610_YF] 1.7, VDDEIYYFRKP [PBRM1_Y1289] 0.932, KIPGRYYETGS [PAX2_Y72_L69P] 0.756, EYFENYIEELK [PARP4_Y218] 1.13, EKESCYILHSS [PATJ_Y783_E779K] 1.22, KILGRYFETGS [PAX2_Y72_YF] 1.35, KILGTYFETGS [PAX2_Y72_R71T_YF] 1.25, KKDGPYDVVVL [PARK7_Y67_E64D] 0.668, FHLLPYTVRAM [PARS2_Y93_YF] 1.75, EYYENYIEELK [PARP4_Y218_F215Y] 1.43, IPGRFYETGSI [PAX2_Y73_L69P_YF] 0.96, WDSSGYWTPEE [PAPPA2_Y908_C903W] 1.14, CDSSGYWTPEE [PAPPA2_Y908] 0.765, ILGRFYETGSI [PAX2_Y73_YF] 1.12, ILGRYYETGSI [PAX2_Y73] 0.918, FHLLPYTIRAM [PARS2_Y93_V95I_YF] 2.59, EEKSCYILHSS [PATJ_Y783_E780K] 0.974, KILGRYFETSS [PAX2_Y72_G76S_YF] 1.25

Biological target: SHP2 N-SH2 domain L43F
Experiment: as above
Details: peptide library: pTyr-Var

Enrichment score, inactive:
EASGIYVKSII [PATJ_Y396] 0.548, LHSEAYLKFIE [PBRM1_Y1610_YF] 1.55, VDDEIYYFRKP [PBRM1_Y1289] 0.763, KIPGRYYETGS [PAX2_Y72_L69P] 1.04, EYFENYIEELK [PARP4_Y218] 1.25, EKESCYILHSS [PATJ_Y783_E779K] 0.923, KILGRYFETGS [PAX2_Y72_YF] 1.15, KILGTYFETGS [PAX2_Y72_R71T_YF] 1.08, KKDGPYDVVVL [PARK7_Y67_E64D] 0.723, FHLLPYTVRAM [PARS2_Y93_YF] 1.92, EYYENYIEELK [PARP4_Y218_F215Y] 1.13, IPGRFYETGSI [PAX2_Y73_L69P_YF] 1.02, WDSSGYWTPEE [PAPPA2_Y908_C903W] 0.892, CDSSGYWTPEE [PAPPA2_Y908] 0.601, ILGRFYETGSI [PAX2_Y73_YF] 1.91, ILGRYYETGSI [PAX2_Y73] 0.982, FHLLPYTIRAM [PARS2_Y93_V95I_YF] 2.83, EEKSCYILHSS [PATJ_Y783_E780K] 1.06, KILGRYFETSS [PAX2_Y72_G76S_YF] 1.11

Biological target: SHP2 N-SH2 domain T42A
Experiment: as above
Details: peptide library: pTyr-Var

Enrichment score, inactive:
EASGIYVKSII [PATJ_Y396] 0.57, LHSEAYLKFIE [PBRM1_Y1610_YF] 1.15, VDDEIYYFRKP [PBRM1_Y1289] 0.565, KIPGRYYETGS [PAX2_Y72_L69P] 0.806, EYFENYIEELK [PARP4_Y218] 0.961, EKESCYILHSS [PATJ_Y783_E779K] 0.905, KILGRYFETGS [PAX2_Y72_YF] 1.46, KILGTYFETGS [PAX2_Y72_R71T_YF] 1.06, KKDGPYDVVVL [PARK7_Y67_E64D] 0.613, FHLLPYTVRAM [PARS2_Y93_YF] 1.98, EYYENYIEELK [PARP4_Y218_F215Y] 1.02, IPGRFYETGSI [PAX2_Y73_L69P_YF] 0.79, WDSSGYWTPEE [PAPPA2_Y908_C903W] 1.15, CDSSGYWTPEE [PAPPA2_Y908] 0.674, ILGRFYETGSI [PAX2_Y73_YF] 1.19, ILGRYYETGSI [PAX2_Y73] 1.04, FHLLPYTIRAM [PARS2_Y93_V95I_YF] 2.57, EEKSCYILHSS [PATJ_Y783_E780K] 0.95, KILGRYFETSS [PAX2_Y72_G76S_YF] 1.54

Biological target: SHP2 N-SH2 domain T52S
Experiment: as above
Details: peptide library: pTyr-Var

Enrichment score, inactive:
EASGIYVKSII [PATJ_Y396] 0.565, LHSEAYLKFIE [PBRM1_Y1610_YF] 1.06, VDDEIYYFRKP [PBRM1_Y1289] 0.66, KIPGRYYETGS [PAX2_Y72_L69P] 0.973, EYFENYIEELK [PARP4_Y218] 0.926, EKESCYILHSS [PATJ_Y783_E779K] 1.06, KILGRYFETGS [PAX2_Y72_YF] 1.09, KILGTYFETGS [PAX2_Y72_R71T_YF] 0.952, KKDGPYDVVVL [PARK7_Y67_E64D] 0.611, FHLLPYTVRAM [PARS2_Y93_YF] 2.12, EYYENYIEELK [PARP4_Y218_F215Y] 1.22, IPGRFYETGSI [PAX2_Y73_L69P_YF] 1.18, WDSSGYWTPEE [PAPPA2_Y908_C903W] 0.708, CDSSGYWTPEE [PAPPA2_Y908] 0.628, ILGRFYETGSI [PAX2_Y73_YF] 1.86, ILGRYYETGSI [PAX2_Y73] 0.947, FHLLPYTIRAM [PARS2_Y93_V95I_YF] 2.98, EEKSCYILHSS [PATJ_Y783_E780K] 0.762, KILGRYFETSS [PAX2_Y72_G76S_YF] 1.47

Biological target: SHP2 N-SH2 domain wild-type
Experiment: as above
Details: peptide library: pTyr-Var

Enrichment score, inactive:
EASGIYVKSII [PATJ_Y396] 0.678, LHSEAYLKFIE [PBRM1_Y1610_YF] 1.38, VDDEIYYFRKP [PBRM1_Y1289] 0.873, KIPGRYYETGS [PAX2_Y72_L69P] 0.889, EYFENYIEELK [PARP4_Y218] 1.02, EKESCYILHSS [PATJ_Y783_E779K] 1.51, KILGRYFETGS [PAX2_Y72_YF] 1.23, KILGTYFETGS [PAX2_Y72_R71T_YF] 1.38, KKDGPYDVVVL [PARK7_Y67_E64D] 0.927, FHLLPYTVRAM [PARS2_Y93_YF] 2.02, EYYENYIEELK [PARP4_Y218_F215Y] 1.29, IPGRFYETGSI [PAX2_Y73_L69P_YF] 1.03, WDSSGYWTPEE [PAPPA2_Y908_C903W] 1.12, CDSSGYWTPEE [PAPPA2_Y908] 0.6, ILGRFYETGSI [PAX2_Y73_YF] 1.13, ILGRYYETGSI [PAX2_Y73] 1.01, FHLLPYTIRAM [PARS2_Y93_V95I_YF] 2.37, EEKSCYILHSS [PATJ_Y783_E780K] 1.11, KILGRYFETSS [PAX2_Y72_G76S_YF] 1.27
